# Data as given in the supplement of paper PMC8728848.
# This is one part of the list.
# Assays:
# Assay in all cases: glycan array binding signal (z-score within array); higher = stronger binding
# Settings in all cases: glycan notation: IUPAC condensed, linker removed
# [1] = target: Fuc(a1-2)[Gal(a1-3)]Gal(b1-4)GlcNAc(b1-2)Man(a1-3)[Fuc(a1-2)[Gal(a1-3)]Gal(b1-4)GlcNAc(b1-2)Man(a1-6)]Man(b1-4)GlcNAc(b1-4)GlcNAc
# Summary of the method: (§1)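 The Consortium for Functional Glycomics database supplied 3228 glycan arrays, of which those lacking an available protein sequence were dropped. The binding signal, a within-array Z-score, was averaged across arrays of the same protein sequence and across linkers. Negative scores can be read as non-binding.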
# [2] = target: Fuc(a1-2)[Gal(a1-3)]Gal(b1-4)[Fuc(a1-3)]GlcNAc
# Summary of the method: as §1
# [3] = target: Fuc(a1-2)[Gal(a1-4)]Gal(b1-4)GlcNAc
# Summary of the method: as §1
# [4] = target: Fuc(a1-2)[GalNAc(a1-3)]Gal
# Summary of the method: as §1
# [5] = target: Fuc(a1-2)[GalNAc(a1-3)]Gal(b1-3)GlcNAc
# Summary of the method: as §1
# [6] = target: Fuc(a1-2)[GalNAc(a1-3)]Gal(b1-3)GlcNAc(b1-2)Man(a1-3)[Fuc(a1-2)[GalNAc(a1-3)]Gal(b1-3)GlcNAc(b1-2)Man(a1-6)]Man(b1-4)GlcNAc(b1-4)GlcNAc
# Summary of the method: as §1
# [7] = target: Fuc(a1-2)[GalNAc(a1-3)]Gal(b1-4)Glc
# Summary of the method: as §1
# [8] = target: Fuc(a1-2)[GalNAc(a1-3)]Gal(b1-4)GlcNAc
# Summary of the method: as §1
# [9] = target: Fuc(a1-2)[GalNAc(a1-3)]Gal(b1-4)GlcNAc(b1-2)Man(a1-3)[GalNAc(a1-3)[Fuc(a1-2)]Gal(b1-4)GlcNAc(b1-2)Man(a1-6)]Man(b1-4)GlcNAc(b1-4)GlcNAc
# Summary of the method: as §1
# [10] = target: Fuc(a1-2)[GalNAc(a1-3)]Gal(b1-4)GlcNAc(b1-3)Gal(b1-4)GlcNAc
# Summary of the method: as §1
# [11] = target: Fuc(a1-2)[GalNAc(a1-3)]Gal(b1-4)GlcNAc(b1-3)Gal(b1-4)GlcNAc(b1-3)Gal(b1-4)GlcNAc
# Summary of the method: as §1
# [12] = target: Fuc(a1-2)[GalNAc(a1-3)]Gal(b1-4)[Fuc(a1-3)]GlcNAc
# Summary of the method: as §1
# [13] = target: Fuc(a1-2)[GalNAc(a1-4)]Gal(b1-4)GlcNAc
# Summary of the method: as §1
# [14] = target: Fuc(a1-2)[GalNAc(b1-3)]Gal
# Summary of the method: as §1
# [15] = target: Fuc(a1-3)GlcNAc
# Summary of the method: as §1
# [16] = target: Fuc(a1-3)[Gal(b1-4)]Glc6S
# Summary of the method: as §1
# [17] = target: Fuc(a1-3)[Gal(b1-4)]GlcNAc
# Summary of the method: as §1
# [18] = target: Fuc(a1-3)[Gal(b1-4)]GlcNAc(b1-2)Man(a1-3)[Fuc(a1-3)[Gal(b1-4)]GlcNAc(b1-2)Man(a1-6)]Man(b1-4)GlcNAc(b1-4)GlcNAc
# Summary of the method: as §1
# [19] = target: Fuc(a1-3)[Gal(b1-4)]GlcNAc(b1-2)Man(a1-6)[Gal(b1-4)GlcNAc(b1-2)Man(a1-3)]Man(b1-4)GlcNAc(b1-4)GlcNAc
# Summary of the method: as §1
# [20] = target: Fuc(a1-3)[Gal(b1-4)]GlcNAc(b1-3)Gal(b1-3)[Fuc(a1-4)]GlcNAc
# Summary of the method: as §1
# [21] = target: Fuc(a1-3)[Gal(b1-4)]GlcNAc(b1-4)Gal(b1-4)[Fuc(a1-3)]GlcNAc
# Summary of the method: as §1
# [22] = target: Fuc(a1-3)[Gal(b1-4)]GlcNAc(b1-4)Gal(b1-4)[Fuc(a1-3)]GlcNAc(b1-4)Gal(b1-4)[Fuc(a1-3)]GlcNAc
# Summary of the method: as §1
# [23] = target: Fuc(a1-3)[Gal(b1-4)]GlcNAc6S
# Summary of the method: as §1
# [24] = target: Fuc(a1-3)[Gal3S(b1-4)]Glc6S
# Summary of the method: as §1
# [25] = target: Fuc(a1-3)[Gal3S(b1-4)]GlcNAc
# Summary of the method: as §1
# [26] = target: Fuc(a1-3)[Gal3S(b1-4)]GlcNAc6S
# Summary of the method: as §1
# [27] = target: Fuc(a1-3)[GalNAc(b1-4)]GlcNAc
# Summary of the method: as §1
# [28] = target: Fuc(a1-4)GlcNAc
# Summary of the method: as §1
# [29] = target: Fuc(b1-3)GlcNAc
# Summary of the method: as §1
# [30] = target: Gal(a1-2)Gal
# Summary of the method: as §1
# [31] = target: Gal(a1-3)Gal
# Summary of the method: as §1
# [32] = target: Gal(a1-3)Gal(b1-3)GlcNAc
# Summary of the method: as §1
# [33] = target: Gal(a1-3)Gal(b1-4)Glc
# Summary of the method: as §1
# [34] = target: Gal(a1-3)Gal(b1-4)GlcNAc
# Summary of the method: as §1
# [35] = target: Gal(a1-3)Gal(b1-4)[Fuc(a1-3)]GlcNAc
# Summary of the method: as §1
# [36] = target: Gal(a1-3)Gal(b1-4)[Fuc(a1-3)]GlcNAc(b1-2)Man(a1-3)[Gal(a1-3)Gal(b1-4)[Fuc(a1-3)]GlcNAc(b1-2)Man(a1-6)]Man(b1-4)GlcNAc(b1-4)GlcNAc
# Summary of the method: as §1
# [37] = target: Gal(a1-3)GalNAc
# Summary of the method: as §1
# [38] = target: Gal(a1-3)[Gal(a1-4)]Gal(b1-4)GlcNAc
# Summary of the method: as §1
# [39] = target: Gal(a1-4)Gal(b1-4)Glc
# Summary of the method: as §1
# [40] = target: Gal(a1-4)Gal(b1-4)GlcNAc
# Summary of the method: as §1
# [41] = target: Gal(a1-4)Gal(b1-4)GlcNAc(b1-3)Gal(b1-4)Glc
# Summary of the method: as §1
# [42] = target: Gal(a1-4)GlcNAc
# Summary of the method: as §1
# [43] = target: Gal(a1-6)Glc
# Summary of the method: as §1
# [44] = target: Gal(b1-2)Gal
# Summary of the method: as §1
# [45] = target: Gal(b1-3)Gal
# Summary of the method: as §1
binder,measurement,setting,value
"CCL2 (Coprinopsis cinerea), B3GA02 (protein) MDSPAVTLSAGNYIIYNRVLSPRGEKLALTYPGRQRTPVTVSPLDGSSEQAWILRSYDSNSNTWTISPVGSPNSQIGWGAGNVPVVLPPNNYVWTLTLTSGGYNIQDGKRTVSWSLNNATAGEEVSIGADATFSGRWVIEKV",glycan array binding signal (z-score),[1],-0.268
same,glycan array binding signal (z-score),[2],-0.275
same,glycan array binding signal (z-score),[3],-0.288
same,glycan array binding signal (z-score),[4],-0.291
same,glycan array binding signal (z-score),[5],-0.291
same,glycan array binding signal (z-score),[6],-0.251
same,glycan array binding signal (z-score),[7],-0.293
same,glycan array binding signal (z-score),[8],-0.286
same,glycan array binding signal (z-score),[9],-0.269
same,glycan array binding signal (z-score),[10],-0.273
same,glycan array binding signal (z-score),[11],-0.23
same,glycan array binding signal (z-score),[12],-0.28
same,glycan array binding signal (z-score),[13],-0.273
same,glycan array binding signal (z-score),[14],-0.266
same,glycan array binding signal (z-score),[15],-0.278
same,glycan array binding signal (z-score),[16],-0.29
same,glycan array binding signal (z-score),[17],0.752
same,glycan array binding signal (z-score),[18],3.53
same,glycan array binding signal (z-score),[19],-0.299
same,glycan array binding signal (z-score),[20],2.08
same,glycan array binding signal (z-score),[21],4.28
same,glycan array binding signal (z-score),[22],3.56
same,glycan array binding signal (z-score),[23],2.61
same,glycan array binding signal (z-score),[24],-0.182
same,glycan array binding signal (z-score),[25],-0.279
same,glycan array binding signal (z-score),[26],-0.226
same,glycan array binding signal (z-score),[27],4.84
same,glycan array binding signal (z-score),[28],-0.281
same,glycan array binding signal (z-score),[29],-0.267
same,glycan array binding signal (z-score),[30],-0.29
same,glycan array binding signal (z-score),[31],-0.301
same,glycan array binding signal (z-score),[32],-0.293
same,glycan array binding signal (z-score),[33],-0.298
same,glycan array binding signal (z-score),[34],-0.284
same,glycan array binding signal (z-score),[35],1.05
same,glycan array binding signal (z-score),[36],4.37
same,glycan array binding signal (z-score),[37],-0.251
same,glycan array binding signal (z-score),[38],-0.267
same,glycan array binding signal (z-score),[39],-0.289
same,glycan array binding signal (z-score),[40],-0.283
same,glycan array binding signal (z-score),[41],-0.271
same,glycan array binding signal (z-score),[42],-0.227
same,glycan array binding signal (z-score),[43],-0.275
same,glycan array binding signal (z-score),[44],-0.291
same,glycan array binding signal (z-score),[45],-0.291
